Test results as given in the RNAGym collection of RNA variant scans (doi:10.1073/pnas.2313332121).
Variants at the floor of the assay are shown more often than the library holds them.

B1: TPR 5TU (parent)
chain: GGAUCUUCUCGAUCUAACAAAAAAGACAAAUCUGCCACAAAGCUUGAGAGCAUCUUCGGAUGCAGAGGCGGCAGCCUUCGGUGGCGCGAUAGCGCCAACGUUCUCAACUAUGACACGCAAAACGCGUGCUCCGUUGAAUGGAGUUUAUCAUG

Variants of: B1
Assay: polymerase ribozyme fitness, log enrichment relative to wild type (log ratio); higher = more active; in vitro selection for triplet polymerase activity
Procedure, shortened: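 Both subunits of a heterodimeric triplet polymerase ribozyme were given their own mutant library, built by PCR and transcribed. Each library was annealed with a biotinylated primer, the partner subunit and triplets, incubated frozen at −7 °C, and its extended constructs gel-excised, captured on streptavidin beads and amplified by RT-PCR, all in one round done in triplicate. Fitness is the logarithm of genotype enrichment relative to wild-type enrichment, with replicates averaged by inverse-variance weighting. That logarithm is base 2, and Illumina-sequenced genotypes needed ≥10 input reads and ≥1 read per output.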

Polymerase ribozyme fitness (log ratio), ≤ -4.2:
GGCUCUUAUCGAUCUAACAAUAAAGACAAAUCUGCCACAAAGCUUGAGAGCCUCUUCCGAUGCAGAGGCGGCAGCCUUCGGGGGCGCGAUAGAGGCAACGUUCUCAUCUAUGACACGCAAAACGCGUGCGCCGUUGAAGGGAGUUUAUCAUG
GGCUCUUCUCGAUCUAACUAAAAAGACAAAUCUGCCACAAAGCUUGAGAGCCUCUUAGGAUGCAGAGGCGGCAGCGUUCGGUGGCGAGAUAGCGCCAACGUUCUCAACUAUGACACGAAAAACGUGUGCUCCGUUGAAUGGAGUUUAUCAUG
GGCUCUUCUCGAUCUAACAAAAAAGACAAAUCUGCCACAAAGCUUGAGAGCAUCUUCGGAUGCAGAGGCGGCAGCGUUCGGUGGCGCGAUAGCGCCAACGUUCUCAACUAUGACACGCAAAACGCGUGCUCCGUUGAAUGGAGUUUAUCAUG
GGCUCUUCUCGAUCUAUCAAAAAAGACAAAUCUGCCACAAAGCUUGAGAGCAUUUUCGGAUGCAGAGGCGGCAUCCUUCGGUGGCGCGAUAGCGCCAACGUUCUCAACUAUGACACGCAAAACGCGUGCUUCGUUGAAUGGAGUUUAUCAUG
GGCGCUUCUCGAUCUAACAACAAAGACAAAUCUGCCAGAACGCUUGAGAGCAUCUUCGGAUGCAGAGACGGCAGCCUUCGAUGGUGCGAUAGCGUCAACGUUCUCAACUAUGACAGGCAAAACGCGUGCUCCGUUGAAUGGAGUUUAUCAUG
GGCUCUUCUCGAUCUAACAAAAAAGACAAAUCUGCCACAAAGCUUGAGAGCAUCUUCGGAUGCAGAGGCGGCAGCCUUCGGUGGAGCGAUAGCGCCAAGGUUCUCAACUAUGACACGCAAAACGCGUGCUCCGUUGAAUGGGGUUUAUCAUG
GGCUCUUCUCCAUCUAACAAAAAAGACAAAUCUGCCACAAAGCUUGAUAGCCUCUUCGGAUGCAGAGGAGGCAGCCUUCGGUGGUGCGAUAGCGCCAACGUUCUCAACUAUGACACGCAAAACGCGUGCUCCGGUGAAUGGAGUUUAUCGUG
GGCUCUUCUCGAUCUAAGAAAAAAGACAAAUCUGCCACAAAGUUUGAGAGCAUCUUCGGAUGCAGAGGCGGCAGCCUUCGGUGGCGCGAUAGCGCCAACGUUCUCAACUAUGACACGCAAAACGCGUGCUCCGUUGAAUGGAGUUUAUCAUG
GGCUUUUCUCGAUCUAACAAAAAAGACAAAUCUGCCACAAAGUUUGAGAGCAUCUUCGGAUGCAGAGGCCGCAGCCUUCGGUGACGCGAUAGCGCCAACGUUCUCUACUAUGCCACGCAAAACGCGUGCUCCGUUGAAUGGAGUUUAUCAUG
GGCUCUUCUCGAUCUAACUAAAAAGACAAAUCUGCCACAACGCUUGAGAGCAUCUUCGGAUGCAGAGGCGGCAACCUUCGGUGGCGCGAUACCGCCAACGUUCUCAACUAUGACACGCAAAACGCGUGCUCCGUUGAAUGGAGUUUAUCAUU
GGCUCUUCUCGAUCUAACAAAAAAGACUAAUCUGCCACAAAGCUUGAGAGCAUCUUCGGAUGCAGAGGCGGCAGCCAUCGGUGGCGCGAUAGUGCCAACGUUCUCAACUAUGACACGCAAAACGCGUGAUCCGUUGAAUGGAGUUUAGCAUG
GGCUCUUCUCGAUCUAACAAAAAAGACAAAUCUGCCACAAAGCUUGAGAGCCUCUUCGGAUGCAGAGACGGCAGCCUUCGUUGGCGCGAUAACGCCAACGUUCUCAACUAUGACACGCAAAACGAGUGCUCCGUUUAAUUGAGUUUAUCAAG
GGCUCUUCUCGAUCUUACAAAAAAGACAAAUCUGCCACAAAGCUUGAGAGCAUCUUCGGAUGCAGAGGCGGCAGCCUUCGGUGGCGCGAUAGGGCCAACGUUCUCAACUAUGACACGUAAAACGCGUGCGCCGUUGAAUGGAGUUUAUCAUG
GGCUCUUCUCGAUCUAACAAAAAAGACAAAUCUGCGACAAAGCUUGAGAGCAUCUUCGGCUGCAGAGGCGGCAGCCUUCGGUUGCGCGAUAGCGCCAACGUUCUCAACUAUGACACGGAAAACGCGUGCUCCGUUGAAUGGAGUUUAUCAUG
GGCUCUUCUCGAUCUAACAAAAAAGACAAAUCUGCAACAAAGCUUGAGAGCAUCUUCGGAUGCAGAGGCGGCAGCCUUCGGAGGCGCGAUAGCGCCAACGUUCUUAACUAUGACACGCAAAACGCGUGCUCCGUUGAAUGGAGUUUAUCAUG
GGCUCUUCUCGAUCUAACAAAAAAGACAAAUCUGCCACAAAGCUUGAGAGCUUCUUCGACUGCAGAGCCGGCAGCCUUCGGUGACGCGAUAGCGCGAACGUUCUCAACUAUGACACGCAAAACGCGUGCUCCAUUGAAUGGAGUUUAUCAUG
GGCUCUUCUCGAUCUAACAAAAAAGACAAAUCUGCCACAAAGCUUGAGAGCAUGUUCGGAUGCAGAGGCGGCAGCCGUCGGUGGCGCGAUUGCGCCAACGUUUUCAACUAUGACACGCAAAACGCGUGCUCAGUUGAAUGGACUUUAUCAUG
GGCUCUUCUCGAUCUAACAAAAAAGACAAAUCUGCCACAAAGCUUGAGAGCAUCUUUGGAUGCAGAGGCGGCAGCCUUCGGGGACGCGAAAGGGCCAACGUUCUCAACUAUGACACGCAAAACGCGUGCUCCGUUGAAUGGAGUUUAUUAUG
GGCUCUUAUCGAUCUAACAAAAAAGACAAAUCUGCCACAAAGCUUGAGAGUAUCUUCGGAUGCAGAAGCGGCAGCCUUCGGUUGCGCGAUAGCACCACGGUUCUCAACCAUGACACGCAUAACGCGUGCUCCGUUGAAUGGAGUGUAUCAUG
